The structures appear in SMILES notation. The list shows a part of the results. Most values come without repeats; read them as rough.
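Note: surface PD-L1 on NSCLC cells stained with a PE-labelled anti-human PD-L1 antibody before flow cytometry, screening a library of roughly two hundred mostly kinase and epigenetic inhibitors.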

For the experiment, the system named is NCI-H460. Put plainly: cell-surface PD-L1 MFI ratio relative to radiation alone (isotype-subtracted); higher = higher PD-L1 surface expression. To be noted: inducer: radiation 8 Gy; 10 µM; 24 h. Here is the method: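 A549 and H460 NSCLC cells were treated with each library drug at 10 uM, then with radiation (8 Gy) or cisplatin (4 uM), and incubated for 24 h. Cell-surface PD-L1 was measured by flow cytometry as an MFI ratio: (MFI drug+inducer - MFI isotype)/(MFI inducer alone - MFI isotype). Hits were defined as ratio < 0.75.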
For the compound `COC(=O)[C@@H](N)CCCNC(=N)N[N+](=O)[O-]`, the “cell-surface PD-L1 MFI ratio” value is inactive: 1.07.

For the compound `COc1cc([C@@H]2c3cc4c(cc3[C@H](O)[C@H]3COC(=O)[C@@H]23)OCO4)cc(OC)c1OC` [Picropodophyllin (PPP)], the “cell-surface PD-L1 MFI ratio” value was inactive: 1.8. As for `CN1CCN(c2ccc([N+](=O)[O-])c3no[n+]([O-])c23)CC1`, the figure is inactive: 1.29.

Values taken from the supplement of paper PMC8792480.
